# Reference: the supplement of paper PMC8728848
# The other results are listed elsewhere or left out.
# Key:
# Assay in all cases: glycan array binding signal (z-score within array); higher = stronger binding
# Details in all cases: glycan notation: IUPAC condensed, linker removed
# [1] = biological target: Fuc(a1-2)Gal
# In short: (§1)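 Glycan array binding is given as a within-array Z-score, which can be read as non-binding when negative. The arrays, 3228 of them, came from the Consortium for Functional Glycomics database and were retained only where the protein sequence was available. Z-scores were averaged across arrays of the same protein sequence at different concentrations or buffers and across linkers.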
# [2] = biological target: Fuc(a1-2)Gal(b1-3)GalNAc
# In short: as §1
# [3] = biological target: Fuc(a1-2)Gal(b1-3)GalNAc(b1-3)Gal
# In short: as §1
# [4] = biological target: Fuc(a1-2)Gal(b1-3)GalNAc(b1-3)Gal(a1-4)Gal(b1-4)Glc
# In short: as §1
# [5] = biological target: Fuc(a1-2)Gal(b1-3)GalNAc(b1-3)Gal(b1-4)Glc
# In short: as §1
# [6] = biological target: Fuc(a1-2)Gal(b1-3)GalNAc(b1-4)[Neu5Ac(a2-3)]Gal(b1-4)Glc
# In short: as §1
# [7] = biological target: Fuc(a1-2)Gal(b1-3)[Fuc(a1-4)]GlcNAc
# In short: as §1
# [8] = biological target: Fuc(a1-2)Gal(b1-4)Glc
# In short: as §1
# [9] = biological target: Fuc(a1-2)Gal(b1-4)Glc6S
# In short: as §1
# [10] = biological target: Fuc(a1-2)Gal(b1-4)GlcNAc
# In short: as §1
# [11] = biological target: Fuc(a1-2)Gal(b1-4)GlcNAc(b1-3)Gal(b1-4)GlcNAc
# In short: as §1
# [12] = biological target: Fuc(a1-2)Gal(b1-4)GlcNAc(b1-3)Gal(b1-4)GlcNAc(b1-3)Gal(b1-4)GlcNAc
# In short: as §1
# [13] = biological target: Fuc(a1-2)Gal(b1-4)GlcNAc6S
# In short: as §1
# [14] = biological target: Fuc(a1-2)Gal(b1-4)[Fuc(a1-3)]GalNAc(b1-3)Gal(b1-4)[Fuc(a1-3)]GlcNAc
# In short: as §1
# [15] = biological target: Fuc(a1-2)Gal(b1-4)[Fuc(a1-3)]GalNAc(b1-3)Gal(b1-4)[Fuc(a1-3)]GlcNAc(b1-3)Gal(b1-4)[Fuc(a1-3)]GalNAc
# In short: as §1
# [16] = biological target: Fuc(a1-2)Gal(b1-4)[Fuc(a1-3)]GlcNAc
# In short: as §1
# [17] = biological target: Fuc(a1-2)Gal6S(b1-4)Glc
# In short: as §1
# [18] = biological target: Fuc(a1-2)Gal6S(b1-4)Glc6S
# In short: as §1
# [19] = biological target: Fuc(a1-2)Gal6S(b1-4)GlcNAc
# In short: as §1
# [20] = biological target: Fuc(a1-2)GlcNAc
# In short: as §1
# [21] = biological target: Fuc(a1-2)[Gal(a1-3)]Gal
# In short: as §1
# [22] = biological target: Fuc(a1-2)[Gal(a1-3)]Gal(b1-3)GlcNAc
# In short: as §1
# [23] = biological target: Fuc(a1-2)[Gal(a1-3)]Gal(b1-4)Glc
# In short: as §1
# [24] = biological target: Fuc(a1-2)[Gal(a1-3)]Gal(b1-4)GlcNAc
# In short: as §1
# [25] = biological target: Fuc(a1-2)[Gal(a1-3)]Gal(b1-4)[Fuc(a1-3)]GlcNAc
# In short: as §1
# [26] = biological target: Fuc(a1-2)[Gal(a1-4)]Gal(b1-4)GalNAc
# In short: as §1
# [27] = biological target: Fuc(a1-2)[GalNAc(a1-3)]Gal
# In short: as §1
# [28] = biological target: Fuc(a1-2)[GalNAc(a1-3)]Gal(b1-3)GlcNAc
# In short: as §1
# [29] = biological target: Fuc(a1-2)[GalNAc(a1-3)]Gal(b1-4)Glc
# In short: as §1
# [30] = biological target: Fuc(a1-2)[GalNAc(a1-3)]Gal(b1-4)GlcNAc
# In short: as §1
# [31] = biological target: Fuc(a1-2)[GalNAc(a1-3)]Gal(b1-4)[Fuc(a1-3)]GlcNAc
# In short: as §1
# [32] = biological target: Fuc(a1-2)[GalNAc(a1-4)]Gal(b1-4)GlcNAc
# In short: as §1
# [33] = biological target: Fuc(a1-3)GlcNAc
# In short: as §1
# [34] = biological target: Fuc(a1-3)[Gal(b1-4)]Glc6S
# In short: as §1
# [35] = biological target: Fuc(a1-3)[Gal(b1-4)]GlcNAc
# In short: as §1
# [36] = biological target: Fuc(a1-3)[Gal(b1-4)]GlcNAc(b1-3)Gal(b1-3)[Fuc(a1-4)]GlcNAc
# In short: as §1
# [37] = biological target: Fuc(a1-3)[Gal(b1-4)]GlcNAc(b1-4)Gal(b1-4)[Fuc(a1-3)]GlcNAc
# In short: as §1
# [38] = biological target: Fuc(a1-3)[Gal(b1-4)]GlcNAc(b1-4)Gal(b1-4)[Fuc(a1-3)]GlcNAc(b1-4)Gal(b1-4)[Fuc(a1-3)]GlcNAc
# In short: as §1
# [39] = biological target: Fuc(a1-3)[Gal(b1-4)]GlcNAc6S
# In short: as §1
# [40] = biological target: Fuc(a1-3)[Gal3S(b1-4)]Glc
# In short: as §1
# [41] = biological target: Fuc(a1-3)[Gal3S(b1-4)]Glc6S
# In short: as §1
# [42] = biological target: Fuc(a1-3)[Gal3S(b1-4)]GlcNAc
# In short: as §1
# [43] = biological target: Fuc(a1-3)[Gal3S(b1-4)]GlcNAc6S
# In short: as §1
# [44] = biological target: Fuc(a1-3)[GalNAc(b1-4)]Gal(b1-4)GlcNAc
# In short: as §1
# [45] = biological target: Fuc(a1-4)GlcNAc
# In short: as §1
binder,measurement,setting,value
"Epa1 (Candida glabrata), Q6FUW5_CANGA (protein) MILNPALFLNKCVCIYTTLILLLLTNGGYATSSNDISLASKDPTTFPLGCSPDITTPKKGLSMELYSYDFRKKGSYPCWDAAYLDPNYPRTGYKSHRLLAKVDGVTGNINFYYHATKGCTPQLGHLPASYNYPKPLTMTNFTMLLYGYFRPKVTGFHTFTISADDLLFVNFGAGNAFDCCRRDSSADHFGNYQAYAIWGSKTAKDELTVHLDAGVYYPIRLFYNNREYDGALSFTFKTESNENTVSDFSEYFFSLDDTEEGCPGLISYDSSCASVKTSKIIGIDYHTETPNENLVPITKTIYHLGIPCTGTTTTPLCGSGFYDPLANKCVTINTSSTSSVTKTTSHTTSKEVSFHSSISSQKTLIPKSIPSPYGPIKSQSIPTEMETSSEISSSEYAFSDVISTPSHSPYTKKHSSLNSSSYTSTVIHSLTSYSISQGIFSTSLSEQNITSKSSTDKFSTATSMSNSITQSSIIISQSSTNNENYTTTSMHTSSDKISTETLNNSISTTTSILFSNSSTILKNNTTIISSDKDTHYHPVNPTIVCSTNKTEIICASITQPSISNSNNHWSSSVLRFNSTTVRSTLPSSAGSNETSINVPFSSSTESNASTSSTSTSNSKTVRSTLPSSAGSNETSINVPFSSSTESNTSTSSTSTSNSKTVRSTLPSSAGSNETSINVPFSSSTESNASTSSTSTSNSKTVRSTPFSSAGIIMTSLSQRNNKSASSYASSNSKCYNTADSCRKVHSTPSYLLTSSYTSEGVDYDCSLVSTKLKINDTNCLNNKHTTKSCLKTSVTTTIPTLEIKTARKSSSNTIGLHSYPTSSPNKSISSAPIIGYISSFKTIKTASPSYQTSDLTTITTITSLNNPGSTAVENTHESNDKSRKTSSNDISSKHSVIKETKDAVESSNKSHQTNTLKCSSIIIASSSHNSYESLGGTTLTLTLSKVYSPQNNDTLPFLEISEVNPSRTVLPESSKMMQYLTSTEERNKTARNTIATNIVSISTFHFEGEGNAIRMGYTQLLLMLIGIIVMNIGT",glycan array binding signal (z-score),[1],-0.551
same,glycan array binding signal (z-score),[2],-0.554
same,glycan array binding signal (z-score),[3],-0.555
same,glycan array binding signal (z-score),[4],-0.549
same,glycan array binding signal (z-score),[5],-0.554
same,glycan array binding signal (z-score),[6],-0.198
same,glycan array binding signal (z-score),[7],-0.553
same,glycan array binding signal (z-score),[8],-0.556
same,glycan array binding signal (z-score),[9],-0.553
same,glycan array binding signal (z-score),[10],-0.552
same,glycan array binding signal (z-score),[11],-0.548
same,glycan array binding signal (z-score),[12],-0.555
same,glycan array binding signal (z-score),[13],1.65
same,glycan array binding signal (z-score),[14],-0.555
same,glycan array binding signal (z-score),[15],-0.55
same,glycan array binding signal (z-score),[16],-0.553
same,glycan array binding signal (z-score),[17],-0.554
same,glycan array binding signal (z-score),[18],-0.55
same,glycan array binding signal (z-score),[19],-0.128
same,glycan array binding signal (z-score),[20],-0.542
same,glycan array binding signal (z-score),[21],-0.553
same,glycan array binding signal (z-score),[22],-0.553
same,glycan array binding signal (z-score),[23],-0.548
same,glycan array binding signal (z-score),[24],-0.552
same,glycan array binding signal (z-score),[25],-0.552
same,glycan array binding signal (z-score),[26],1.74
same,glycan array binding signal (z-score),[27],-0.553
same,glycan array binding signal (z-score),[28],-0.537
same,glycan array binding signal (z-score),[29],-0.551
same,glycan array binding signal (z-score),[30],-0.557
same,glycan array binding signal (z-score),[31],-0.552
same,glycan array binding signal (z-score),[32],-0.552
same,glycan array binding signal (z-score),[33],-0.549
same,glycan array binding signal (z-score),[34],-0.536
same,glycan array binding signal (z-score),[35],-0.549
same,glycan array binding signal (z-score),[36],-0.556
same,glycan array binding signal (z-score),[37],-0.551
same,glycan array binding signal (z-score),[38],-0.548
same,glycan array binding signal (z-score),[39],0.298
same,glycan array binding signal (z-score),[40],-0.555
same,glycan array binding signal (z-score),[41],-0.543
same,glycan array binding signal (z-score),[42],-0.55
same,glycan array binding signal (z-score),[43],-0.441
same,glycan array binding signal (z-score),[44],-0.555
same,glycan array binding signal (z-score),[45],-0.549
